# This is one part of the list. These are noisy estimates, calculated here from bound and input reads.
# Target: T1, Pho4 (S. cerevisiae) (UniProt P07270)
# T1 sequence: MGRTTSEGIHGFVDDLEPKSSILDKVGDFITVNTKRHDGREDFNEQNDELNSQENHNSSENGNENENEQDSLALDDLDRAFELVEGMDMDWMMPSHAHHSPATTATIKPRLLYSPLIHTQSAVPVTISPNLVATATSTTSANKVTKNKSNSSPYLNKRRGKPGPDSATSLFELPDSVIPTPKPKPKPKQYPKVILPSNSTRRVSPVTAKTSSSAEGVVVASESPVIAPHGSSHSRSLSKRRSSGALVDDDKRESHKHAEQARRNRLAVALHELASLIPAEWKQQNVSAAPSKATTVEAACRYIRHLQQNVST
# Experiment: relative binding free energy (BET-seq); higher = weaker binding
# Conditions: reference: library average
row,Sequence,relative binding free energy
1,TGAGGCACGTGTTTTG,0 kcal/mol
2,TTGTACACGTGGATTC,0.07 kcal/mol
3,TGTAACACGTGTCTGT,-0.03 kcal/mol
4,ATTGACACGTGACGGT,0.01 kcal/mol
5,ATAATCACGTGTGGTC,0.21 kcal/mol
6,GTCTTCACGTGTAAAT,0.42 kcal/mol
7,TTAAGCACGTGTTGAT,-0.02 kcal/mol
8,TTAAGCACGTGGTCTT,-0.15 kcal/mol
9,TTCGTCACGTGTTCAG,0.18 kcal/mol
10,GTCGGCACGTGTGGAT,-0.02 kcal/mol
11,GAGTGCACGTGATGGT,0.2 kcal/mol
12,GTGAACACGTGGTGGT,0.01 kcal/mol
13,TGATCCACGTGATTGG,0.13 kcal/mol
14,TTGGGCACGTGGGCCT,-0.25 kcal/mol
15,TTATGCACGTGGAATT,0.16 kcal/mol
16,ATTTACACGTGTTGGG,0.15 kcal/mol
17,GGCGGCACGTGGTCGT,0 kcal/mol
18,ACAGTCACGTGTAGTT,0.1 kcal/mol
19,GTTGTCACGTGATAGC,0.2 kcal/mol
20,TGAGGCACGTGGCTAG,-0.2 kcal/mol
21,TTATGCACGTGTTTGC,-0.04 kcal/mol
22,TTGCTCACGTGGTTAG,0.16 kcal/mol
23,ATGGTCACGTGTGTAT,0.13 kcal/mol
24,TTAATCACGTGAATGC,0.34 kcal/mol
25,TTGGGCACGTGTGGTT,-0.03 kcal/mol

row,Sequence,relative binding free energy
1,TAAAACACGTGGGAGG,-0.1 kcal/mol
2,AAATACACGTGCGGGT,0.13 kcal/mol
3,TAAAGCACGTGTTGAG,-0.08 kcal/mol
4,AGTCGCACGTGTTGTC,0.2 kcal/mol
5,TGAAACACGTGGTCGG,-0.1 kcal/mol
6,GGGTACACGTGTTTCT,0.06 kcal/mol
7,TTTATCACGTGTACGG,0.1 kcal/mol
8,GTAGACACGTGATGTT,0.23 kcal/mol
9,GAGGTCACGTGGGTTC,0 kcal/mol
10,TATTACACGTGAGGGT,0.31 kcal/mol
11,GTTTGCACGTGCGGGT,0.01 kcal/mol
12,AGCTTCACGTGTGGGT,0.26 kcal/mol
13,AGTTTCACGTGCGATG,0.18 kcal/mol
14,GGCATCACGTGTTTTG,0.18 kcal/mol
15,GGGGACACGTGGGCGA,0.09 kcal/mol
16,ACGTGCACGTGTGTGC,-0.08 kcal/mol
17,GTAATCACGTGCTGGT,0.18 kcal/mol
18,TTTATCACGTGTCTAT,0.13 kcal/mol
19,TGTGACACGTGACAGT,0.25 kcal/mol
20,CAGTGCACGTGGATGG,0 kcal/mol
21,ATTCGCACGTGTTGAT,-0.03 kcal/mol
22,ATAGCCACGTGTGTGG,-0.18 kcal/mol
23,TAGCTCACGTGGGGGG,0.01 kcal/mol
24,AGAATCACGTGGAAAG,0.48 kcal/mol
25,AATGTCACGTGAGAGA,0.28 kcal/mol

row,Sequence,relative binding free energy
1,TGGGGCACGTGGGGGT,-0.19 kcal/mol
2,CGAGGCACGTGATGGT,0.03 kcal/mol
3,GGCAACACGTGGGCGG,-0.02 kcal/mol
4,AATGCCACGTGTGTCG,0.08 kcal/mol
5,AGTTTCACGTGGGGAC,0.06 kcal/mol
6,TTACTCACGTGTTTAG,0.25 kcal/mol
7,TCATTCACGTGGGGAG,0.08 kcal/mol
8,GTGTTCACGTGTTACG,0.11 kcal/mol
9,TAGTTCACGTGAGGAG,0.47 kcal/mol
10,TGGTCCACGTGTTTTT,0.09 kcal/mol
11,TGAAGCACGTGGGCAG,-0.18 kcal/mol
12,CAGGTCACGTGTTATT,0.02 kcal/mol
13,TTGCACACGTGTTTAT,0.09 kcal/mol
14,CTGGGCACGTGTGAGA,0.14 kcal/mol
15,TGGTTCACGTGTTCCG,0.3 kcal/mol
16,GGGGACACGTGCGGTT,0.01 kcal/mol
17,GGCGGCACGTGGGGAT,-0.08 kcal/mol
18,TGTTACACGTGTTGTA,0 kcal/mol
19,TTTTACACGTGAATGT,0.41 kcal/mol
20,AGTGACACGTGGGGTC,-0.19 kcal/mol
21,GAGTTCACGTGATATT,0.18 kcal/mol
22,TTATACACGTGGAAAG,0.06 kcal/mol
23,TATGACACGTGGGTAA,-0.1 kcal/mol
24,GTAAGCACGTGCGGTT,0.06 kcal/mol
25,GAGTACACGTGATGTT,0.25 kcal/mol

row,Sequence,relative binding free energy
1,TCGGACACGTGGGGGA,-0.14 kcal/mol
2,ATAGACACGTGAGGCG,0.23 kcal/mol
3,AATGTCACGTGGGGAC,0.09 kcal/mol
4,TGTGTCACGTGTGGCT,0.07 kcal/mol
5,AGCGTCACGTGTCGTG,-0.05 kcal/mol
6,AAGGTCACGTGGAGCT,0.02 kcal/mol
7,GAGGGCACGTGCGTTA,-0.03 kcal/mol
8,TGGGTCACGTGCGGAT,0.1 kcal/mol
9,AGTATCACGTGGGTTC,0 kcal/mol
10,TGGTCCACGTGGTAAT,0.1 kcal/mol
11,ATCTTCACGTGGGATG,0.15 kcal/mol
12,GGGATCACGTGATTTT,0.38 kcal/mol
13,TTGTGCACGTGTCAGT,-0.06 kcal/mol
14,GGTGACACGTGCGGGA,0.03 kcal/mol
15,TTGTGCACGTGTCAAG,0.04 kcal/mol
16,ATGTTCACGTGGGAAT,0.29 kcal/mol
17,TATACCACGTGGTAGG,-0.12 kcal/mol
18,GGGTACACGTGTGTCA,0.09 kcal/mol
19,CGCTTCACGTGAGTGG,0.25 kcal/mol
20,TGTGGCACGTGTGGCG,0.05 kcal/mol
21,TCGATCACGTGAGTTA,0.39 kcal/mol
22,ATGGTCACGTGCGTTA,0.12 kcal/mol
23,GTTGTCACGTGCGGCT,0.24 kcal/mol
24,GGGTGCACGTGGGAGC,-0.07 kcal/mol
25,ATGAGCACGTGGGTTG,-0.15 kcal/mol

row,Sequence,relative binding free energy
1,ATCGGCACGTGGTAGG,-0.06 kcal/mol
2,TCTTACACGTGTTTTA,0.13 kcal/mol
3,AAAAGCACGTGGTGAT,-0.01 kcal/mol
4,TAAGGCACGTGGACAG,-0.09 kcal/mol
5,TTATTCACGTGGAGAG,0.28 kcal/mol
6,CTTACCACGTGTTGGT,0 kcal/mol
7,ATGGTCACGTGGGGGC,-0.02 kcal/mol
8,GAGGCCACGTGGGTGC,-0.1 kcal/mol
9,GGGCGCACGTGACGGT,0.1 kcal/mol
10,GTTTGCACGTGTGTCT,0.01 kcal/mol
11,GTATGCACGTGGTTAC,-0.04 kcal/mol
12,CTGATCACGTGGAGGT,0.06 kcal/mol
13,CATAGCACGTGGGGTG,-0.46 kcal/mol
14,TGTTACACGTGTCATT,0.13 kcal/mol
15,AGGAGCACGTGAGATT,0.15 kcal/mol
16,GATGGCACGTGGTGGG,-0.02 kcal/mol
17,GATGGCACGTGTGAGC,0.08 kcal/mol
18,AATAGCACGTGCGGTA,0.02 kcal/mol
19,AGAATCACGTGAGGGG,0.38 kcal/mol
20,TCAATCACGTGAGTGT,0.23 kcal/mol
21,GTGCTCACGTGTACGG,0.25 kcal/mol
22,TTGAACACGTGATGGA,0.11 kcal/mol
23,TAGACCACGTGTTGTG,-0.16 kcal/mol
24,AGTGTCACGTGACTGC,0.22 kcal/mol
25,GGCATCACGTGGATGT,0.19 kcal/mol

row,Sequence,relative binding free energy
1,GTCGGCACGTGTTGGA,0.06 kcal/mol
2,GAAATCACGTGTATAT,0.22 kcal/mol
3,TAGTACACGTGGCTTT,0.13 kcal/mol
4,TGGGTCACGTGAAGCA,0.37 kcal/mol
5,CGTTACACGTGGGAGT,0.02 kcal/mol
6,TTAGTCACGTGGATAC,0.12 kcal/mol
7,ATAGACACGTGAGTGT,0.16 kcal/mol
8,TTAGTCACGTGGGGAT,0.09 kcal/mol
9,AGCGGCACGTGTGCTT,-0.04 kcal/mol
10,TGCGTCACGTGTATGT,0.15 kcal/mol
11,ACTGGCACGTGGTTGT,-0.09 kcal/mol
12,TGGAACACGTGTTAAT,0.11 kcal/mol
13,CTCGGCACGTGGCTGG,-0.14 kcal/mol
14,TTGCACACGTGTTGTA,-0.03 kcal/mol
15,TAGGTCACGTGATAGG,0.26 kcal/mol
16,GGGTCCACGTGTCGTG,0.13 kcal/mol
17,CAGGGCACGTGAGTGA,0.18 kcal/mol
18,CATGTCACGTGGTGAG,0.12 kcal/mol
19,GGGCGCACGTGGAGTT,0.07 kcal/mol
20,AGATTCACGTGTTGAA,0.24 kcal/mol
21,CGTAACACGTGATTTT,0.25 kcal/mol
